# Source: the supplement of paper PMC4604168 (melanoma cell lines)
# Some of the results follow. Many values rest on one well or one pass, so single values are uncertain.
# Legend:
# Test in all cases: cell count relative to DMSO control; melanoma cells; higher = more viable cells
# Conditions in all cases: library dose: standard library concentration; 72 h; first compound 2 µM
# G361 = test system: G361
# IPC-298 = test system: IPC-298
# IST-MEL1 = test system: IST-MEL1
# LOXIMVI = test system: LOXIMVI
# MEL-HO = test system: MEL-HO
# MeWo = test system: MeWo
# RPMI7951 = test system: RPMI7951
# RVH-421 = test system: RVH-421
# SkMel28 = test system: SkMel28
# SkMel2 = test system: SkMel2
# SkMel30 = test system: SkMel30
# SkMel5 = test system: SkMel5
# UACC257 = test system: UACC257
# UACC62 = test system: UACC62
# WM115 = test system: WM115
# WM1716 = test system: WM1716
# WM1745 = test system: WM1745
# WM3526 = test system: WM3526
# LB2518-MEL = test system: LB2518-MEL
# MZ2-MEL = test system: MZ2-MEL
# 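Also: cells treated in 1,536-well plates, then fixed and DAPI-stained, with nuclei counted from automated high-throughput microscope images.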
SMILES,cell count (G361) [%],cell count (IPC-298) [%],cell count (IST-MEL1) [%],cell count (LOXIMVI) [%],cell count (MEL-HO) [%],cell count (MeWo) [%],cell count (RPMI7951) [%],cell count (RVH-421) [%],cell count (SkMel28) [%],cell count (SkMel2) [%],cell count (SkMel30) [%],cell count (SkMel5) [%],cell count (UACC257) [%],cell count (UACC62) [%],cell count (WM115) [%],cell count (WM1716) [%],cell count (WM1745) [%],cell count (WM3526) [%],cell count (LB2518-MEL) [%],cell count (MZ2-MEL) [%]
Cn1sc(=O)n(Cc2ccccc2)c1=O + C=C(c1ccc(C(=O)O)cc1)c1cc2c(cc1C)C(C)(C)CCC2(C)C [Bexarotene] (partner dose 10 µM),72.5,66.3,77.7,100,104,104,79.1,123,73.8,81.3,78.5,91.3,76.9,70.6,109,83.8,106,81.9,–,–
C[C@@H](N)c1ccc(C(=O)Nc2ccnc3[nH]ccc23)cc1 + C[C@@H](Oc1cc(-c2cnn(C3CCNCC3)c2)cnc1N)c1c(Cl)ccc(F)c1Cl [Crizotinib] (partner dose 1 µM),72.2,88.9,77.7,146,64.9,50.7,46.4,45.9,63.7,82.4,77.9,47.6,68.1,68.6,65.7,38.8,33.5,72.4,–,–
CCCCCCCCCCCCCCCCCCOP(=O)([O-])OC1CC[N+](C)(C)CC1 [Perifosine] + Oc1nc(-c2ccc(C(F)(F)F)cc2)nc2c1CSCC2 [XAV939] (partner dose 10 µM),86.8,91.2,100,88.7,93.2,93,50.3,68.3,88.5,104,86.9,68.8,93,75.8,70.5,66.9,–,108,82.9,99.6
CCCCCCCCCCCCCCCCCCOP(=O)([O-])OC1CC[N+](C)(C)CC1 [Perifosine] + Cn1c(=O)n(-c2ccc(C(C)(C)C#N)cc2)c2c3cc(-c4cnc5ccccc5c4)ccc3ncc21 [NVP-BEZ235] (partner dose 0.02 µM),61.6,69.5,71.4,79.5,74.6,69.8,36.1,73.3,50.5,66.8,73,66.4,93.7,63.3,66.6,65.6,75.8,75.7,–,–
CCCCCCCCCCCCCCCCCCOP(=O)([O-])OC1CC[N+](C)(C)CC1 [Perifosine] + Oc1cc(-c2nc(-c3ccccc3)[nH]c2-c2ccncc2)ccc1Cl [L779450] (partner dose 1 µM),59.2,88.1,88.2,92.8,80.3,85.7,37,67.5,43.7,28.2,56.9,61.3,95.1,55.7,42.3,68,–,57.8,96.2,96.6
Cn1sc(=O)n(Cc2ccccc2)c1=O + CC(C)CCN1c2nc(Nc3cc(F)c(O)c(F)c3)ncc2N(C)C(=O)C1C [BID1870] (partner dose 1 µM),61.1,75.6,81.5,97.6,65.2,63.7,80.7,71.8,51.5,79.5,74.1,73.3,80.9,67.8,90.2,98.4,–,72.2,78.3,88.2
Cn1sc(=O)n(Cc2ccccc2)c1=O + O=C(O)C(=O)Nc1sc2c(c1C(=O)O)CCNC2 [TCS401] (partner dose 8.33333 µM),93.2,96,102,81.2,84.7,87.6,85.4,38.7,102,96,100,72.3,79.3,66.7,80,85.5,–,80.9,92,94.3
CCCCCCCCCCCCCCCCCCOP(=O)([O-])OC1CC[N+](C)(C)CC1 [Perifosine] + O=C(Nc1ccccc1)c1cc([N+](=O)[O-])ccc1Cl [GW9662] (partner dose 10 µM),83.6,102,93.4,88.6,89.4,68.3,39.9,68.5,74.7,86.8,108,82,77,60.7,73.9,87.4,–,101,67.5,95
C[C@@H](N)c1ccc(C(=O)Nc2ccnc3[nH]ccc23)cc1 + Cn1cc(/C=C2\C(=O)Nc3cccnc32)c2ccccc21 [GW441756] (partner dose 2 µM),77.2,77.7,80.8,91.7,70.9,63,64.4,53.2,73.4,93.9,71,42.4,38.2,73.7,101,27.8,–,76.9,111,43.3
CCCCCCCCCCCCCCCCCCOP(=O)([O-])OC1CC[N+](C)(C)CC1 [Perifosine] + CC(C)CCN1c2nc(Nc3cc(F)c(O)c(F)c3)ncc2N(C)C(=O)C1C [BID1870] (partner dose 1 µM),71.5,72.6,84.1,92.6,77.6,79.3,61.1,87.5,52.5,82.7,66.2,80.3,101,77.5,106,108,–,75.7,111,111
C[C@@H](N)c1ccc(C(=O)Nc2ccnc3[nH]ccc23)cc1 + CC(C)CCN1c2nc(Nc3cc(F)c(O)c(F)c3)ncc2N(C)C(=O)C1C [BID1870] (partner dose 1 µM),66.3,77.5,76.5,82.8,67.4,47.3,45.1,45.9,60.6,75.6,71.7,52.7,56.6,58.9,90.3,8.19,–,57.2,130,51.4
Cn1sc(=O)n(Cc2ccccc2)c1=O + c1cc(-c2cnn3cc(-c4ccc(OCCN5CCCCC5)cc4)cnc23)ccn1 [Dorsomorphin] (partner dose 2 µM),72.5,79.2,90.9,84.8,80.8,62.6,54.3,103,57.4,98.2,93,61.7,78.3,58.3,61.1,71.5,–,88.4,59.7,84.4
CCCCCCCCCCCCCCCCCCOP(=O)([O-])OC1CC[N+](C)(C)CC1 [Perifosine] + CCc1ccc(CCOc2ccc(CC3SC(=O)NC3=O)cc2)nc1 [pioglitazone] (partner dose 10 µM),104,81.6,71.1,43.7,64,79.7,26.7,127,55.3,64.6,70.4,69.3,93.4,79.1,90.6,57,–,89.5,73.9,89.1
C[C@@H](N)c1ccc(C(=O)Nc2ccnc3[nH]ccc23)cc1 + CCN(CC)CCNC(=O)c1c(C)[nH]c(/C=C2\C(=O)Nc3ccc(F)cc32)c1C [sunitinib] (partner dose 2 µM),79.4,78.3,77.1,74.8,74,58.5,24.9,79.9,67.7,60.6,80.5,44.8,52.5,52.1,81.9,41.2,12.6,59.6,–,–
Cn1sc(=O)n(Cc2ccccc2)c1=O + COc1cc(N2CCC(N3CCN(C)CC3)CC2)ccc1Nc1ncc(Cl)c(Nc2ccccc2S(=O)(=O)C(C)C)n1 [NVP-TAE684] (partner dose 0.4 µM),82.7,90.9,114,107,78.1,74.5,93.3,83.5,95.1,83.7,101,81.4,96.1,65.7,102,101,–,92.1,99.8,109
CCCCCCCCCCCCCCCCCCOP(=O)([O-])OC1CC[N+](C)(C)CC1 [Perifosine] + COc1cc(N2CCC(N3CCN(C)CC3)CC2)ccc1Nc1ncc(Cl)c(Nc2ccccc2S(=O)(=O)C(C)C)n1 [NVP-TAE684] (partner dose 0.4 µM),96.7,82.6,96.2,87,78.3,74.3,32.5,88.9,68.4,65,109,69.4,83.4,62.9,56.3,94.3,–,68.2,95,86.2
Cn1sc(=O)n(Cc2ccccc2)c1=O + Oc1nc(-c2ccc(C(F)(F)F)cc2)nc2c1CSCC2 [XAV939] (partner dose 10 µM),73.8,93.9,102,100,81.3,92.3,76.2,265,67.3,106,88.2,66.5,80.8,86.1,95,42.8,–,90.5,88.7,100
CCCCCCCCCCCCCCCCCCOP(=O)([O-])OC1CC[N+](C)(C)CC1 [Perifosine] + O=C(O)C(=O)Nc1sc2c(c1C(=O)O)CCNC2 [TCS401] (partner dose 8.33333 µM),112,98.2,91.6,123,89.1,75,50.1,111,57.5,85.5,88,88.2,93.3,97.2,72.5,78.6,–,89.1,80.8,108
C[C@@H](N)c1ccc(C(=O)Nc2ccnc3[nH]ccc23)cc1 + CN(c1ncccc1CNc1nc(Nc2ccc3c(c2)CC(=O)N3)ncc1C(F)(F)F)S(C)(=O)=O [PF562271] (partner dose 0.4 µM),53.4,74.6,88.8,66.6,46.5,77.7,30.4,65.5,53.7,68.5,84.1,59.3,47.4,62.4,80.9,44.6,26.1,91.8,–,–
